According to PubChem BioAssay AID1476 (National Center for Advancing Translational Sciences (NCATS), 2009):
The campaign covered roughly 200,000 compounds. About 4,500 (2.2%) were called active. The inconclusive results got no clear call from the source; some entries with a clear call stand among them for comparison. Calls come from the whole dose curve; as a rule, active = well fitted inhibition curve with a large enough effect; inconclusive = small, poorly fitted or top-dose-only effect, or effect the other way; inactive = flat fitted curve, though single readings scatter. Potencies beside an inconclusive call are fits to weak or partial responses and may not hold up.

Molecular target: Cruzipain (Trypanosoma cruzi) (UniProt P25779)
UniProt P25779, sequence (P25779 whole entry, looked up): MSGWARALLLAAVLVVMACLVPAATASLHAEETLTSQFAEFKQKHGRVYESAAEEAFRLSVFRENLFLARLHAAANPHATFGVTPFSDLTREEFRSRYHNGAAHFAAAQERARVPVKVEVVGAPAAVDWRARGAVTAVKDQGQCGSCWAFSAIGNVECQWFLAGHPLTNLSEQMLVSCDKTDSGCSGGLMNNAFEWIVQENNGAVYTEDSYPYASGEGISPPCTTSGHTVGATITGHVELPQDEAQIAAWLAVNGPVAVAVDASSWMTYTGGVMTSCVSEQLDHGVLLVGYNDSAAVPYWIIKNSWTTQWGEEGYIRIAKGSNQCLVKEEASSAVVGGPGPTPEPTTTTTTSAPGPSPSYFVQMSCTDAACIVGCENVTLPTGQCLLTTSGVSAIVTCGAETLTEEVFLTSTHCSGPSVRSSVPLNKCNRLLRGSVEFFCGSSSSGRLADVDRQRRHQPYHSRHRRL
Assay: qHTS Assay for Promiscuous and Specific Inhibitors of Cruzain (without detergent); note: nearly all actives have a fitted effect of over 40% in size;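 for max response, negative = inhibition: plate controls were enzyme without inhibitor for no effect and buffer without enzyme for full effect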
Settings: purified cruzain, Z-FR-AMC fluorescence, no detergent
Method in brief: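 Purified cruzain at 1.5 nM, pre-incubated 15 min with compound at room temperature in 100 mM sodium acetate pH 5.5, 5 mM DTT, 0.00005% Triton X-100. Reaction started with 2 uM Z-FR-AMC; AMC fluorescence increase over 60 s gives rate.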
Potency is the fitted concentration of half-maximal effect; tags give direction and shape of the fitted curve.

SMILES	Potency	max response, negative = inhibition
COC(=O)CNC(c1ccccc1)c1cc(Br)ccc1NC(=O)c1cc(OC)c(OC)c(OC)c1 (stereo unspecified)	inconclusive: 31.6 µM [activator, single point]	–
CC1=C(c2ccc(Cl)cc2)S(=O)(=O)N=C1N1CCN(c2cccc(C)c2)C(C)C1 (stereo unspecified)	–	inactive: 28.9%
N#Cc1sc2nc(-c3cccs3)cc(-c3ccc(F)cc3)c2c1N	inconclusive: 39.8 µM [inhibitor, single point]	–
Fc1ccc(-n2ncc3c(Nc4ccc(Oc5ccc(Cl)cc5)cc4)ncnc32)cc1	–	inactive: -4.38%
COc1ccc(C(=O)Nc2ccc(Cl)c(Cl)c2)c(OC)n1	inconclusive: 31.6 µM [inhibitor, single point]	–
O[N+]1=CC=CCC1=S.On1ccccc1=S.[Zn]	active: 2.51 µM	–
Cn1c(=O)[nH]c(=O)c2c1nc(CN1CCN(c3cccc(Cl)c3)CC1)n2CCc1ccccc1	inconclusive: 15.8 µM [activator, partial curve]	–
Cc1ccc(NC(=O)N(Cc2ccc3c(c2)OCO3)Cc2cc3cc4c(cc3[nH]c2=O)OCCO4)cc1	active: 31.6 µM	–
COc1ccc(-c2cc(C)no2)cc1S(=O)(=O)Nc1cccc(C(F)(F)F)c1	–	inactive: -1.94%
C=C1CC[C@H](O)C/C1=C/C=C1\CCC[C@]2(C)[C@H]1CC[C@H]2[C@@H](C)CCCC(C)C	inconclusive: 12.6 µM [activator, partial curve]	–
O=C(N/N=C/c1c[nH]c2ccccc12)c1cc(-c2cccc3ccccc23)n[nH]1	inconclusive: 39.8 µM [inhibitor, single point]	–
CCc1ccc(NC(=O)CSc2nnc(-c3nonc3NC(C)=O)n2-c2ccccc2)cc1	inconclusive: 31.6 µM [activator, single point]	–
CCc1ccc(-n2c(=O)c3cccnc3n2CC(=O)N(CC)c2cccc(C)c2)cc1	inconclusive: 39.8 µM [activator, single point]	–
CN1CCC2(CC1)CCN(C(=O)c1cc(C(F)(F)F)cc(C(F)(F)F)c1)CC2	–	inactive: -11.4%
CCN(c1ccccc1)S(=O)(=O)c1cc(C(=O)Nc2ccc(Br)cc2)ccc1F	inconclusive: 3.98 µM [inhibitor, full curve, poor fit]	–
CCN(CC)C(=O)Cn1c(SCC(=O)Nc2ccc(C)c(C)c2)nc2ccccc21	inconclusive: 39.8 µM [activator, single point]	–
Cc1cc(NC(=O)c2ccc3c(c2)C(=O)N(C2CCCCC2)C3=O)no1	active: 6.31 µM	–
CN(C)C(=O)/C(=C/c1cn(-c2ccccc2)nc1-c1cccc([N+](=O)[O-])c1)NC(=O)c1ccccc1	inconclusive: 39.8 µM [activator, single point]	–
CC(C)CN1CC[C@@]2(CCCN(C(=O)c3ccco3)C2)C1	–	inactive: -1.06%
Cc1ccccc1OCC(=O)NC(=S)Nc1ccc(S(=O)(=O)NC2CCCCC2)cc1	inconclusive: 39.8 µM [inhibitor, single point]	–
COc1cc(NC(=O)CCCSc2nc(-c3ccco3)cc(C(F)(F)F)n2)cc(OC)c1OC	inconclusive: 39.8 µM [activator, single point]	–

SMILES	Potency	max response, negative = inhibition
COc1ccc2c(C)cc(SCC(=O)Nc3nsc(-c4ccc(C(C)(C)C)cc4)n3)nc2c1	inconclusive: 3.16 µM [inhibitor, partial curve]	–
CSc1nnc(C)c(/C=C/Nc2ccc(Cl)cc2)n1	inconclusive: 39.8 µM [activator, single point]	–
O=C(NNc1ccccc1[N+](=O)[O-])Nc1ccc(Cl)c(Cl)c1	–	inactive: 5.3%
Fc1ccc(C(OCCN2CCN(C/C=C\c3ccccc3)CC2)c2ccc(F)cc2)cc1	inconclusive: 3.98 µM [activator, partial curve, poor fit]	–
Cn1nnc(NC(=O)c2ccccc2)n1	–	inactive: -6.51%
O=C(NC1CCCCC1)N1CCCC(c2nc3ccccc3[nH]2)C1 (stereo unspecified)	active: 5.01 µM	–
CCC(=O)OCC(=O)[C@@]1(OC(=O)CC)[C@@H](C)C[C@H]2[C@@H]3CCC4=CC(=O)C=C[C@]4(C)[C@@]3(F)[C@@H](O)C[C@@]21C	inconclusive: 39.8 µM [activator, single point]	–
COC(=O)c1sccc1N/N=C/c1cccc(Oc2ccccc2)c1	inconclusive: 39.8 µM [inhibitor, single point]	–
COCCn1cnc2c1c(=O)n(CC(=O)OCC(=O)NCCCc1ccccc1)c(=O)n2Cc1ccccc1	inconclusive: 31.6 µM [activator, single point]	–
COc1ccc(C2CC(=O)c3cc(-c4nc(-c5ccc(Cl)cc5)cs4)c(=O)[nH]c3C2)cc1 (stereo unspecified)	inconclusive: 2 µM [inhibitor, partial curve]	–
COc1cc(NC(=O)c2cc(-c3ccccc3O)no2)cc(OC)c1OC	inconclusive: 39.8 µM [activator, single point]	–
Cc1ccc(S(=O)(=O)N(CC(=O)Nc2ccc(Cl)c([N+](=O)[O-])c2)C2CCCCC2)cc1	active: 12.6 µM	–
CCCCCC(=O)NCC(C)NC(=O)CCCCC (stereo unspecified)	–	inactive: 13%
Cc1cccc(N2CCN(c3nc4ccccc4c4nc(-c5ccccc5)nn34)CC2)c1C	–	inactive: 4.87%
COc1ccc(NC(=O)C2CCN(C(=O)c3sc4nc[nH]c(=O)c4c3C)CC2)c(OC)c1	–	inactive: -8.36%
O=C(Nc1cccc(Cl)c1)OCc1cn(-c2ccc(Cl)cc2)nn1	inconclusive: 39.8 µM [inhibitor, single point]	–
COc1ccc(/C=C/C(=O)NC(=S)Nc2cc3oc4ccccc4c3cc2OC)cc1	active: 2.51 µM	–
Cc1cc(S(=O)(=O)Nc2cc3c(cc2N2CCOCC2)n(C)c(=O)n3C)ccc1F	inconclusive: 39.8 µM [activator, single point]	–
C[C@@H](C(=O)Nc1ccc2ccccc2c1)[C@H]1C[C@]1(C)[C@H](NS(=O)(=O)c1ccc2ccccc2c1)c1ccccc1	active: 10 µM	–
O=C(NCC12CC3CC(CC(C3)C1)C2)c1cc2nc(-c3ccc(Cl)cc3)cc(C(F)(F)F)n2n1	–	inactive: -1.58%
